Measured values: PubChem BioAssay AID686979 (National Center for Advancing Translational Sciences (NCATS), 2013)
Hit rate of the full screen: of about 420,000 compounds, about 50,000 (12%) were called active. Inconclusive results, whose numbers are uncertain, are shown with a selection of clear calls. The call rests on the fitted dose curve; in most records, active means well fitted inhibition curve with a large enough effect; inconclusive means small, poorly fitted or top-dose-only effect; inactive means flat fitted curve, though single readings scatter. Potencies of inconclusive entries are left out as doubtful fits.

experiment: qHTS for Inhibitors of human tyrosyl-DNA phosphodiesterase 1 (TDP1): qHTS in cells in presence of CPT; details: chicken DT40 Tdp1-/-;hTDP1 cells + 20 nM CPT, ATP luminescence, 48 h; activity change, negative = growth inhibition: at 46.2 µM (top of the series) unless noted; further: nearly all actives have a fitted effect of over 55% in size
Summary of the method: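 Cell growth measured by CellTiter-Glo luminescence after a minimum 48 h, 37 C compound exposure with 20 nM CPT in Tdp1-knockout DT40 cells stably expressing hTDP1, seeded 400/well; qHTS titration format.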
On the % scale 0 is the no-effect control and ±100 the full control effect; potency means the concentration at half of the fitted maximal effect; tags describe the fitted curve by direction and shape.

Row | SMILES | Potency | activity change, negative = growth inhibition
1 | COc1ccc(CNC(=O)Cn2c(=O)n3nc(-c4cccc(F)c4)nc3c3ccccc32)cc1OC | inactive | 
2 | O=C(COC(=O)/C=C/c1cccs1)NC(c1ccccc1)c1ccccc1 | inconclusive [inhibitor, partial curve, poor fit] | 
3 | O=C1NS(=O)(=O)c2ccccc21 | inconclusive [inhibitor, partial curve, poor fit] | 
4 | COCCOC(=O)c1[nH]c2c(c1C)C(=O)CC(c1ccccc1)C2 (stereo unspecified) | active: 0.651 µM | 
5 | O=S(=O)(O)c1cc(O)c2c(N=Nc3ccc(Nc4ccccc4)c4c(S(=O)(=O)O)cccc34)cc(S(=O)(=O)O)cc2c1 | active: 18.8 µM | 
6 | O=C1N/C(=C/c2ccc(N3CCCC3)cc2)C(=O)N1c1ccccc1 | inconclusive [inhibitor, full curve] | 
7 | Cc1cccc(N/C=C/c2onc(C)c2[N+](=O)[O-])c1 | inconclusive [inhibitor, single point] | 
8 | CCCCOc1ccc(NC(=O)CN2CCN(Cc3ccccc3)CC2)cc1 | inconclusive [inhibitor, single point] | 
9 | CN(CCC#N)c1ncnc2scc(-c3ccccc3)c12 | inconclusive [inhibitor, single point] | 
10 | Cc1noc(C)c1C(=O)N1CCC1(C)C(=O)NS(=O)(=O)c1ccccc1C(F)(F)F (stereo unspecified) | inactive | 
11 | CCc1ccc(S(=O)(=O)Nc2c(NC3CCCCC3)c3ccccc3oc2=O)cc1 | inconclusive [inhibitor, single point] | 
12 | COc1cc(C2c3cc4c(cc3OC(N3CCCC3)C2C)OCO4)cc(OC)c1O (stereo unspecified) | inconclusive [inhibitor, single point] | 
13 | CCc1cc(=O)oc2c(C)c3c(cc12)CN(CCc1ccccc1)CO3 | inconclusive [inhibitor, single point] | 
14 | Nc1cccc(CCc2nc3cc4ccccc4cc3[nH]2)c1 | active: 3.26 µM | 
15 | CCOc1ccc(CN(C)CC(=O)Nc2cccc(S(=O)(=O)N(C)c3ccccc3)c2)cc1 | inconclusive [inhibitor, single point] | 
16 | Brc1ccc(-c2csc(N3CCC(c4ccccc4)C3)n2)cc1 (stereo unspecified) | inconclusive [inhibitor, single point] | 
17 | Cn1c(SCc2cccc(C#N)c2)nc2ccccc2c1=O | inconclusive [inhibitor, single point] | 
18 | COc1ccc(OC)c(NS(=O)(=O)c2ccc3c(c2)CCCN3C(=O)C2CCC2)c1 | active: 23.1 µM | 
19 | CC1(C(=O)Nc2cccc3cccnc23)CCN1C(=O)CCC1CCCC1 (stereo unspecified) | active: 16.4 µM | 
20 | O=C(CCCn1c(=O)[nH]c2cc(Cl)ccc2c1=O)NCCCN1CCN(c2ccc(F)cc2)CC1 | active: 16.4 µM | 
21 | O=C(Nc1ccc2c(c1)OCCO2)c1ccc(Cl)c(S(=O)(=O)N2CCCCC2)c1 | inconclusive [inhibitor, partial curve] | 
22 | CC(C)(C)NC(=O)NC(=O)CN1CCN(S(=O)(=O)c2ccc3c(c2)CCCC3)CC1 | inconclusive [inhibitor, single point] | 
23 | Cc1ccc(CNC(=O)C2CCC(=O)N(Cc3ccc(Cl)cc3)C2)cc1F (stereo unspecified) | inconclusive [inhibitor, single point] | 
24 | O=C(Nc1cccc(F)c1)C1CCN(C(=O)N2CCOc3ccccc32)CC1 | inconclusive [inhibitor, single point] | 

Row | SMILES | Potency | activity change, negative = growth inhibition
25 | Cc1noc(C)c1-c1ccc(C(=O)NCc2ccccc2)c2occc12 | inconclusive [inhibitor, partial curve, poor fit] | 
26 | CCN(CC)C(=O)[C@H]1C[C@H](CC(=O)NCCCn2ccnc2)C(=O)N2CCc3c([nH]c4ccc(Cl)cc34)[C@]12C | inconclusive [inhibitor, partial curve] | 
27 | O=C(NC(NC(=O)c1ccccc1)C(=O)c1ccccc1)c1ccccc1 | inactive | 
28 | Cc1nc(CC(=O)Nc2nccs2)cs1 | inactive | 
29 | Cc1ccc(S(=O)(=O)Nc2ccc3c(c2)CCCN3C(=O)c2cccs2)cc1C | active: 20.6 µM | 
30 | COc1ccccc1-c1sc2cc3c(cc2c1-c1ccc(O)cc1)OCO3 | inconclusive [inhibitor, single point] | 
31 | Cc1cccc(C)c1NS(=O)(=O)c1ccc(-c2cnc(C3CC3)o2)cc1 | active: 0.0058 µM | 
32 | CCc1ccc(CNC(=O)c2ccc(-n3c(C)cc4c3CCC(C)C4)cc2)cc1 (stereo unspecified) | active: 16.4 µM | 
33 | COc1ccc(NS(=O)(=O)c2ccc(NC(=O)c3ccc(CN4CCOCC4)cc3)cc2)cc1 | active: 18.4 µM | 
34 | CC(=O)Nc1ccc(SCC(=O)Nc2oc(C)c3c(C)n[nH]c(=O)c23)cc1 | inactive | 
35 | Cc1cccc(C)c1Nc1c(-c2ccccn2)nc2ccccn12 | active: 6.51 µM | 
36 | ON=C1c2ccccc2-c2ccc(Br)cc21 | active: 29.1 µM | 
37 | Cc1cc(C(=O)Nc2cc(S(C)(=O)=O)ccc2Cl)c(C)o1 | inactive | 
38 | COc1ccc(-n2cc(-c3ccccc3)c3c(NCCCN4CCOCC4)ncnc32)cc1 | inconclusive [inhibitor, partial curve, poor fit] | 
39 | Cc1ccc(-c2csc(NCCn3c(C)nc4cc(C(F)(F)F)ccc43)n2)cc1 | inconclusive [inhibitor, single point] | 
40 | Cc1c(Cl)cccc1NC(=O)CC1NCCNC1=O (stereo unspecified) | inconclusive [inhibitor, partial curve, poor fit] | 
41 | CN1CCN(S(=O)(=O)c2cccc(C(=O)N(Cc3ccccc3)c3ccccc3)c2)CC1 | inconclusive [inhibitor, single point] | 
42 | O=C(CN1CCN(C/C=C/c2ccccc2)CC1)NCc1ccccc1 | inconclusive [inhibitor, single point] | 
43 | Cc1ccc(C(=O)NCCN2CCC(n3c(=O)[nH]c4ccccc43)CC2)cc1 | inconclusive [inhibitor, single point] | 
44 | COC(=O)c1ccc2c(=O)n(Cc3ccco3)c(SCC(=O)Nc3ccc(C)c(Cl)c3)nc2c1 | active: 10.3 µM | 
45 | CN(Cc1ccccc1)c1nc2c(c(=O)[nH]c(=O)n2C)n1CCCc1ccccc1 | active: 29.1 µM | 
46 | Clc1ccc2nc(-c3ccccc3)c(CC3CCCCC3)n2c1 | inconclusive [inhibitor, single point] | 
47 | COc1ccccc1C(=O)NCCC(=O)N1CC(C)OC(C)C1 (stereo unspecified) | inactive | 
48 | Cc1cccc(NC(=O)C(Cc2ccccc2)N2Cc3ccccc3C2=O)c1C (stereo unspecified) | inconclusive [inhibitor, single point] | 

Row | SMILES | Potency | activity change, negative = growth inhibition
49 | Cc1cc(=O)[nH]c(N=N/C(=N/Nc2ccccc2C)c2ccccc2)n1 | active: 4.61 µM | 
50 | CCOC(=O)c1nnc(-c2ccc(C)cc2)nc1Oc1ccc(Cl)cc1Cl | inconclusive [inhibitor, single point] | 
51 | O=C(Nc1ccc(Oc2cccnc2)cc1)C1CCN(Cc2cccc(Cl)c2)CC1 | active: 18.4 µM | 
52 | CCOC(=O)C1(CCOC)CCN(C(=O)c2ccc(CSC)o2)CC1 | inactive | 
53 | N#Cc1cc2c(nc1SCC(=O)Nc1sc3c(c1C#N)CCC3)CCCCCC2 | inconclusive [inhibitor, single point] | 
54 | CC1=CCC2C(=O)N(c3cccc(C(=O)Nc4ccc(Cl)cc4)c3)C(=O)C2C1 (stereo unspecified) | inactive | 
55 | COc1cccc(/C=N/Nc2ncnc(Cl)c2N)c1O | active: 0.82 µM | 
56 | COc1ccc(S(=O)(=O)N(C)CC(=O)Nc2ccccc2C(F)(F)F)cc1Cl |  | inconclusive: -32.5% [inhibitor]
57 | FC(F)Oc1ccc(-n2cc(-c3ccc(Cl)cc3)[n+]3c2CCCCC3)cc1 | active: 4.61 µM | 
58 | O=[N+]([O-])c1ccc(Nc2ccccc2)c2nonc12 | inconclusive [inhibitor, single point] | 
59 | O=C(Cn1ncc2c1-c1ccccc1OC2)Nc1ccc(S(=O)(=O)N2CCCCC2)cc1 | inconclusive [inhibitor, partial curve] | 
60 | CCS(=O)(=O)N1CCc2cc(C(=O)Nc3cccc(NC(C)=O)c3)ccc21 | inconclusive [inhibitor, single point] | 
61 | Cc1cc(NC(=O)CSCC(=O)N(c2cccc(Cl)c2)C(C(=O)NC2CCCCC2)c2ccc(O)c(O)c2)no1 (stereo unspecified) | inconclusive [inhibitor, single point] | 
62 | Oc1ccccc1-c1nc2ccc(Cl)cn2c1Nc1ccc2c(c1)OCCO2 | inconclusive [inhibitor, single point] | 
63 | O=C(Nc1c(C(=O)N2CCN(c3ccccc3F)CC2)oc2ccccc12)c1ccc(Br)o1 | active: 18.4 µM | 
64 | O=C(NC(=S)NCc1nc2ccccc2[nH]1)c1ccccc1F | active: 23.1 µM | 
65 | Cc1c(C(=O)Nc2cccc(F)c2)cnn1-c1ccccc1 | active: 18.4 µM | 
66 | O=C(NNc1ccccc1)OCc1ccccc1 | inconclusive [inhibitor, single point] | 
67 | CN(C)c1nc(-c2ccccn2)nnc1-c1ccccc1 | active: 10.3 µM | 
68 | CCCNC(=O)C1(C)CCCN(C(=O)COc2ccc(C(C)(C)C)cc2)C1 (stereo unspecified) | active: 29.1 µM | 
69 | Cc1noc(C)c1CC(=O)NC1CC(C)(C)Cc2c1cnn2-c1ccccc1 (stereo unspecified) | inconclusive [inhibitor, single point] | 
70 | CCOc1ccccc1/C=N/Nc1ccnc(=O)[nH]1 | active: 5.17 µM | 
71 | Cc1ccc(C2c3[nH]c4ccccc4c3CCN2C(=O)CSc2ccccc2)cc1 (stereo unspecified) | inconclusive [inhibitor, single point] | 
